Test results from PubChem BioAssay AID2147 (National Center for Advancing Translational Sciences (NCATS), 2009).
Among all 230,000 compounds or so, about 3,600 (1.6%) were called active. Inconclusive means that the source gave no clear call. Such entries were picked first, then a sample of the others. Calls come from the whole dose curve; as a rule, active = well fitted inhibition curve with a large enough effect (not every such curve was filed as active); inconclusive = small, poorly fitted or top-dose-only effect, or another doubt; inactive = no such curve, though single readings can be large or run the other way. Potencies beside an inconclusive call are fits to weak or partial responses and may not hold up.

Each molecule was assayed against Lysine-specific demethylase 4E (Homo sapiens) (UniProt B2RXH2) (assay: qHTS Assay for Inhibitors of Human Jumonji Domain Containing 2E (JMJD2E)). Settings: JMJD2E catalytic domain, FDH-coupled NADH fluorescence (FDH is formaldehyde dehydrogenase); series mostly up to 57.1 µM; activity change, negative = inhibition: at the top concentration.
Note: nearly all actives have a fitted effect of over 50% in size.
Potency is the fitted concentration of half-maximal effect; tags give direction and shape of the fitted curve.
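Throughout, for activity change, negative = inhibition: 0% = wells with enzyme and -100% = buffer wells without enzyme.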

Sequence of UniProt B2RXH2 (B2RXH2 whole entry, looked up, the tested form may be a part): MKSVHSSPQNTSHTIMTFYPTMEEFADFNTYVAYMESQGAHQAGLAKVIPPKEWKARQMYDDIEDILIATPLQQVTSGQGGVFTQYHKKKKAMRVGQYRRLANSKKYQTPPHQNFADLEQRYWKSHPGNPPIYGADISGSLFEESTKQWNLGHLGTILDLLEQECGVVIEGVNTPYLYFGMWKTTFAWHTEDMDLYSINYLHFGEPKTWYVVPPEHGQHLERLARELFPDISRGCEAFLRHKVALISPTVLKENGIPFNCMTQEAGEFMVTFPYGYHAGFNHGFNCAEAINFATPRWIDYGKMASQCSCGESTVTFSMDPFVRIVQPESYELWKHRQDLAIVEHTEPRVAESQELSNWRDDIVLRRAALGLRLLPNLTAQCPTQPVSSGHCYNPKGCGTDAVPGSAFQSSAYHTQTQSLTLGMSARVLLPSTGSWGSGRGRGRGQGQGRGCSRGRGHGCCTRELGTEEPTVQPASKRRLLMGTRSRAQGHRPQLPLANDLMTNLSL

| Structure (SMILES) | Potency | activity change, negative = inhibition |
| --- | --- | --- |
| CC(C)(C)OC(=O)N/N=C\C=C\c1ccc2c(c1)OCO2 | inconclusive: 28.2 µM [inhibitor, partial curve] | – |
| COCCn1nnnc1C(c1cc2cc(C)cc(C)c2[nH]c1=O)N1CCN(c2ccccc2F)CC1 (stereo unspecified) | inconclusive: 28.2 µM [inhibitor, partial curve] | – |
| O=C(Nc1ccncc1)c1ccc(C(=O)Nc2ccncc2)cc1 | inconclusive: 35.5 µM [inhibitor, single point] | – |
| Cc1onc(-c2c(Cl)cccc2Cl)c1C(=O)NNc1ccccc1 | inconclusive: 39.8 µM [inhibitor, single point] | – |
| CN1CCc2c(sc(N)c2C(=O)O)C1 | inconclusive: 28.2 µM [inhibitor, partial curve] | – |
| Cc1cc(SCCC(=O)O)nc2c(C)cccc12 | – | inactive: 4.89% |
| Cc1ccnc(NC(=O)COC(=O)C2COc3ccccc3O2)n1 (stereo unspecified) | inconclusive: 31.6 µM [inhibitor, partial curve] | – |
| O=C(/C=C1\NC2(CCCC2)Cc2ccccc21)C(=O)N/N=C/c1ccc(O)c(O)c1 | – | inactive: -2.69% |
| COC(=O)C(CCCN1C(=O)c2ccccc2C1=O)(NC(C)=O)c1nn[nH]n1 (stereo unspecified) | inconclusive: 35.5 µM [inhibitor, single point] | – |
| O=c1c2c(nc(NCCO)n1CC1CCCCC1)-c1ccccc1CC21CCCC1 | inconclusive: 31.6 µM [inhibitor, partial curve] | – |
| Cn1cccc1C1C(C#N)=C(N)OC2=C1C(=O)CCC2 (stereo unspecified) | inconclusive: 22.4 µM [inhibitor, single point] | – |
| CCOc1ccc(CN2CCN(c3cc(C)nc4c5c(C)cc(C)nc5nn34)CC2)cc1 | inconclusive: 11.2 µM [inhibitor, partial curve] | – |
| CC(=O)Nc1cccc(NC(=S)Nc2ccc(F)cc2F)c1 | inconclusive: 39.8 µM [inhibitor, single point] | – |
| CC1(C)C2CCC1(C)C(OC(=O)C[n+]1ccccc1N)C2 (stereo unspecified) | inconclusive: 39.8 µM [inhibitor, single point] | – |
| COc1ccc(-c2ccc(-c3nnc(Cc4ccc(OC)c(OC)c4)o3)cc2)cc1 | inconclusive: 7.94 µM [inhibitor, partial curve] | – |
| N#Cc1nc(-c2ccccc2F)oc1N1CCCC1 | inconclusive: 31.6 µM [inhibitor, partial curve] | – |
| OCCNCCSc1nc(C2CCCCC2)n(-c2ccccc2Cl)n1 | inconclusive: 31.6 µM [inhibitor, single point] | – |
| N#Cc1ccc(-c2csc(NNC(=O)c3ccccc3)n2)cc1 | inconclusive: 28.2 µM [inhibitor, partial curve] | – |
| CCOc1ccc(C(=O)NC2CCN(S(C)(=O)=O)CC2)cc1 | – | inactive: 8.41% |
| Cc1cc(NC(=O)c2ccccc2)n(-c2nc3ccccc3[nH]2)n1 | inconclusive: 25.1 µM [inhibitor, partial curve] | – |
| CN(C1CCCCC1)S(=O)(=O)c1ccc(-c2ccccn2)s1 | – | inactive: -1.73% |
| Cc1ccc(S(=O)(=O)N2CCCN(c3nccc(C(F)(F)F)n3)CC2)cc1 | inconclusive: 28.2 µM [inhibitor, single point] | – |

| Structure (SMILES) | Potency | activity change, negative = inhibition |
| --- | --- | --- |
| COc1ccc2nc(-c3ccco3)c(-c3ccco3)nc2c1 | inconclusive: 31.6 µM [inhibitor, partial curve] | – |
| COc1ccccc1/C=N/NC(=O)c1ccc(-c2ccccc2)cc1 | inconclusive: 35.5 µM [inhibitor, single point] | – |
| CCOc1ccccc1/C=C/c1cc(C(=O)O)c2ccccc2n1 | inconclusive: 31.6 µM [inhibitor, partial curve] | – |
| O=C(NCc1ccccc1)C(c1ccccc1)N(Cc1ccc2c(c1)OCO2)C(=O)Cc1cccs1 (stereo unspecified) | – | inactive: -4.57% |
| Nc1nn2cc(-c3ccccc3)nc2c2ccccc12 | inconclusive: 28.2 µM [inhibitor, partial curve] | – |
| COc1cc2c(cc1OC)C1=NC(=O)CN1C(SCc1ccccc1C)=N2 | inconclusive: 14.1 µM [inhibitor, partial curve] | – |
| Cc1cc(C)nc(N2CCCC(C(=O)NC(C)CCc3ccco3)C2)n1 (stereo unspecified) | inconclusive: 31.6 µM [inhibitor, single point] | – |
| Cc1ccc(-c2ccc(CCC(=O)O)n2Cc2ccco2)cc1 | inconclusive: 31.6 µM [inhibitor, partial curve] | – |
| COc1ccc(NS(=O)(=O)c2cc(C)ccc2NC(=O)c2cc(C)oc2C)cc1 | – | inactive: -4.11% |
| CN(C1CCCCC1)S(=O)(=O)c1ccc(NC(=O)Cn2nc(-c3ccc(F)cc3)ccc2=O)cc1 | inconclusive: 31.6 µM [inhibitor, single point] | – |
| CCOC(=O)c1c(-c2ccc(Cl)cc2)cn2ccccc12 | inconclusive: 6.31 µM [inhibitor, single point] | – |
| O=C1OC2(CCCC2)OC(=O)C1=Cc1c[nH]c2ccccc12 | inconclusive: 39.8 µM [inhibitor, single point] | – |
| CC1(NC(=S)Nc2ccc3ccccc3c2)CCS(=O)(=O)C1 (stereo unspecified) | inconclusive: 22.4 µM [inhibitor, partial curve] | – |
| O=[N+]([O-])c1cc(C(F)(F)F)ccc1NCCc1c[nH]c2ccccc12 | – | inactive: -13.8% |
| CCC(C)c1ccccc1OCCCCN1CCCC1 (stereo unspecified) | inconclusive: 39.8 µM [inhibitor, single point] | – |
| Fc1cccc(Nc2ncnc3c2cnn3-c2ccccc2)c1 | inconclusive: 28.2 µM [inhibitor, single point] | – |
| Cc1cc(-c2cn3ccccc3n2)c(C)n1-c1ccccc1 | inconclusive: 15.8 µM [inhibitor, partial curve, poor fit] | – |
| CC(=O)N1CSCC1C(=O)N1CCN(c2ccc(N3CCOCC3)nn2)CC1 (stereo unspecified) | inconclusive: 28.2 µM [inhibitor, partial curve] | – |
| COc1cc(/C=N/NC(=O)c2cccs2)ccc1OCc1ccccc1 | inconclusive: 39.8 µM [inhibitor, single point] | – |
| CCOC(=O)C1CCCN(C(=O)c2cc(-c3ccc(F)cc3)nc3ccccc23)C1 (stereo unspecified) | inconclusive: 35.5 µM [inhibitor, single point] | – |
| CC(C)COc1ccc(C(=O)N/C(=C/c2cccc([N+](=O)[O-])c2)C(=O)O)cc1 | – | inactive: -8.99% |
| COC(=O)c1[nH]c2ccccc2c1NC(=O)/C=C/c1ccc2c(c1)OCO2 | – | inactive: -4.34% |

| Structure (SMILES) | Potency | activity change, negative = inhibition |
| --- | --- | --- |
| CC(=O)N1CCN(C2c3cccc4cccc(c34)C2NS(=O)(=O)c2ccccc2)CC1 (stereo unspecified) | – | inactive: 3.86% |
| O=C1CCC(=O)N(O)CCCCCNC(=O)CCC(=O)N(O)CCCCCNC(=O)CCC(=O)N(O)CCCCCN1 | active: 7.94 µM | – |
| CCn1c(CCn2c3ccccc3c3ccccc32)n[nH]c1=S | inconclusive: 3.98 µM [inhibitor, single point] | – |
| COc1cc2[nH]c(=O)n(CCCC(=O)N3CC=C(c4ccccc4)CC3)c(=O)c2cc1OC | inconclusive: 28.2 µM [inhibitor, single point] | – |
| Cc1nn(-c2ccccc2)c2nc(N)c(C#N)c(-c3ccc(C(C)(C)C)cc3)c12 | inconclusive: 17.8 µM [inhibitor, partial curve] | – |
| CCN(Cc1ccccc1)C(=O)c1c[nH]c2ccc(S(=O)(=O)N(C)CCC#N)cc2c1=O | inconclusive: 31.6 µM [inhibitor, single point] | – |
| CCc1ccc(-c2cc(C(=O)NN3CCOCC3)c3ccccc3n2)s1 | inconclusive: 15.8 µM [inhibitor, partial curve] | – |
| O=C(NC1CCCCC1)N1CCN(C(c2ccccc2)c2ccccc2)CC1 | – | inactive: 4.72% |
| NC(=O)CCC(NS(=O)(=O)c1ccc(Cl)cc1)C(=O)NCc1ccc(Cl)cc1 (stereo unspecified) | inconclusive: 39.8 µM [inhibitor, single point] | – |
| O=C(c1ccc(F)cc1)n1ccc(-c2cnc(-c3ccccc3)s2)n1 | inconclusive: 3.16 µM [inhibitor, partial curve] | – |
| O=C(NCc1ccco1)C1CC(c2ccccc2O)=NO1 (stereo unspecified) | inconclusive: 31.6 µM [inhibitor, single point] | – |
| CCOc1ccccc1-c1nc(-c2ccc(NC(=O)Cc3ccc(OC)cc3)cc2)no1 | inconclusive: 39.8 µM [inhibitor, single point] | – |
| CCOC(=O)c1[nH]cnc1C(=O)Nc1cccc(OC)c1 | inconclusive: 39.8 µM [inhibitor, single point] | – |
| COc1cc(/C=N/NC(=O)C(Cc2c[nH]c3ccccc23)NC(=O)OCC(C)C)cc([N+](=O)[O-])c1O (stereo unspecified) | – | inactive: 1.08% |
| CC(=O)C1(C)N(O)C(C)(C)C(c2cccs2)=[N+]1[O-] (stereo unspecified) | inconclusive: 31.6 µM [inhibitor, partial curve] | – |
| COc1ccc(-n2nc3cc(C)c(NC(=O)CC(C)C)cc3n2)cc1 | inconclusive: 3.55 µM [inhibitor, partial curve] | – |
| O=C(CSc1nc2sc3c(c2c(=O)[nH]1)CCCC3)NCCO | inconclusive: 25.1 µM [inhibitor, single point] | – |
| O=C(O)c1ccc(-c2nc3scc(-c4ccccc4)c3c(=O)[nH]2)cc1 | inconclusive: 5.01 µM [inhibitor, single point] | – |
| Cc1ccc(C)c(C(C)NC(=O)c2ccccc2Br)c1 (stereo unspecified) | – | inactive: -0.0596% |
| Cc1ccc(C(C)C)c(OCc2nn(CC(=O)c3ccc(OC(F)F)cc3)c3[n+]2CCCCC3)c1 | – | inactive: -13.2% |
| COc1cc(NCc2ccccc2O)c2ncccc2c1 | inconclusive: 31.6 µM [inhibitor, single point] | – |
| CC(C)[C@@H](CC(=O)N[C@@H]1CCNC[C@H]1C(=O)N[C@H](CC(=O)N[C@@H](CCC(=O)O)CC(=O)O)Cc1c[nH]c2ccccc12)NC(=O)C[C@H](CO)NC(=O)[C@@H]1CNCC[C@H]1N | inconclusive: 39.8 µM [inhibitor, single point] | – |
